In publication PMC9911399, “Two distinct binding modes provide the RNA-binding protein RbFox with extraordinary sequence specificity”:
Positions count from the first letter of the chain named. The list shows a part of the results.

T1: RBFOX1 RRM RbFoxmut (Fox-RRM*) (Homo sapiens, UniProt Q9NWB1 109-208, R118D;E147R;N151S;E152T)
T1 sequence: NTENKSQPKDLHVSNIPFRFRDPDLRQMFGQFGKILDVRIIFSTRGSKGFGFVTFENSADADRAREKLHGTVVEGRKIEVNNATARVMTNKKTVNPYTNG

B1: UAGGUAU (DNA:RNA)
RNA: GGGAGACCGGAAUUCAGAUUGUCCUAGGUAUUUAAAUCCCGUCGUAGCCACCA
DNA 1: CAATCTGAATTCCGGTCTCCC
DNA 2: TGGTGGCTACGACGGGATT
B2: CCUAGCA (DNA:RNA)
RNA: GGGAGACCGGAAUUCAGAUUGUCCCCUAGCAUUAAAUCCCGUCGUAGCCACCA
DNA 1: CAATCTGAATTCCGGTCTCCC
DNA 2: TGGTGGCTACGACGGGATT
B3: AUCGAAU (DNA:RNA)
RNA: B1 RNA with U25A, A26U, G27C, U29A
DNA 1: CAATCTGAATTCCGGTCTCCC
DNA 2: TGGTGGCTACGACGGGATT
B4: CGGUCUA (DNA:RNA)
RNA: B2 RNA with C26G, U27G, A28U, G29C, C30U
DNA 1: CAATCTGAATTCCGGTCTCCC
DNA 2: TGGTGGCTACGACGGGATT
B5: AUACAGA (DNA:RNA)
RNA: B2 RNA with C25A, C26U, U27A, A28C, G29A, C30G
DNA 1: CAATCTGAATTCCGGTCTCCC
DNA 2: TGGTGGCTACGACGGGATT
B6: AGGCAGC (DNA:RNA)
RNA: B1 RNA with U25A, A26G, G28C, U29A, A30G, U31C
DNA 1: CAATCTGAATTCCGGTCTCCC
DNA 2: TGGTGGCTACGACGGGATT
B7: CGAGUUU (DNA:RNA)
RNA: B1 RNA with U25C, A26G, G27A, A30U
DNA 1: CAATCTGAATTCCGGTCTCCC
DNA 2: TGGTGGCTACGACGGGATT
B8: UAAGGUA (DNA:RNA)
RNA: B1 RNA with G27A, U29G, A30U, U31A
DNA 1: CAATCTGAATTCCGGTCTCCC
DNA 2: TGGTGGCTACGACGGGATT
B9: UUACUGC (DNA:RNA)
RNA: B1 RNA with A26U, G27A, G28C, A30G, U31C
DNA 1: CAATCTGAATTCCGGTCTCCC
DNA 2: TGGTGGCTACGACGGGATT
B10: GACCUAA (DNA:RNA)
RNA: B1 RNA with U25G, G27C, G28C, U31A
DNA 1: CAATCTGAATTCCGGTCTCCC
DNA 2: TGGTGGCTACGACGGGATT
B11: CGGAUAU (DNA:RNA)
RNA: B1 RNA with U25C, A26G, G28A
DNA 1: CAATCTGAATTCCGGTCTCCC
DNA 2: TGGTGGCTACGACGGGATT
B12: GUCAUGU (DNA:RNA)
RNA: B1 RNA with U25G, A26U, G27C, G28A, A30G
DNA 1: CAATCTGAATTCCGGTCTCCC
DNA 2: TGGTGGCTACGACGGGATT
B13: GAACUAG (DNA:RNA)
RNA: B1 RNA with U25G, G27A, G28C, U31G
DNA 1: CAATCTGAATTCCGGTCTCCC
DNA 2: TGGTGGCTACGACGGGATT
B14: GGCAAGU (DNA:RNA)
RNA: B2 RNA with C25G, C26G, U27C, G29A, C30G, A31U
DNA 1: CAATCTGAATTCCGGTCTCCC
DNA 2: TGGTGGCTACGACGGGATT
B15: UCCCCCG (DNA:RNA)
RNA: B2 RNA with C25U, U27C, A28C, G29C, A31G
DNA 1: CAATCTGAATTCCGGTCTCCC
DNA 2: TGGTGGCTACGACGGGATT
B16: CCGUGGC (DNA:RNA)
RNA: B2 RNA with U27G, A28U, C30G, A31C
DNA 1: CAATCTGAATTCCGGTCTCCC
DNA 2: TGGTGGCTACGACGGGATT
B17: GGGCGCC (DNA:RNA)
RNA: B2 RNA with C25G, C26G, U27G, A28C, A31C
DNA 1: CAATCTGAATTCCGGTCTCCC
DNA 2: TGGTGGCTACGACGGGATT
B18: ACAAUGC (DNA:RNA)
RNA: B2 RNA with C25A, U27A, G29U, C30G, A31C
DNA 1: CAATCTGAATTCCGGTCTCCC
DNA 2: TGGTGGCTACGACGGGATT
B19: AAGUCUA (DNA:RNA)
RNA: B1 RNA with U25A, G28U, U29C, A30U, U31A
DNA 1: CAATCTGAATTCCGGTCTCCC
DNA 2: TGGTGGCTACGACGGGATT
B20: GAAUAUG (DNA:RNA)
RNA: B1 RNA with U25G, G27A, G28U, U29A, A30U, U31G
DNA 1: CAATCTGAATTCCGGTCTCCC
DNA 2: TGGTGGCTACGACGGGATT

Target: T1, RBFOX1 RRM RbFoxmut (Fox-RRM*)
Assay: EMSA; HiTS-Eq, 1 nM pool, 10 min; buffer printed only for the single-RNA assays: 10 mM Tris pH 7.5, 150 mM NaCl, 3.4 mM EDTA, 0.001% NP-40, 30 C
Conditions: tags: His6 N-terminal (pET28a); label: 5' 32P
Method in brief: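 Purified RbFox RRM, wild type or mutant, was incubated for 10 min in 50 µL with 1 nM of a 5′-radiolabelled RNA pool carrying 7 randomized nucleotides, whose flanks were annealed to DNA oligonucleotides, over a series of increasing protein concentrations. Unbound RNA was resolved on 8% native PAGE, cut out, reverse-transcribed, barcoded by PCR and sequenced on an Illumina HiSeq 2500. Relative association constants were derived from changes in read counts for each RNA species versus the control reaction and normalised to the cognate motif.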

Row | Binder | binding signal
1 | B1 | 0.117 KA relative to UGCAUGU
2 | B2 | 0.119 KA relative to UGCAUGU
3 | B3 | 0.16 KA relative to UGCAUGU
4 | B4 | 0.0658 KA relative to UGCAUGU
5 | B5 | 0.0573 KA relative to UGCAUGU
6 | B6 | 0.0622 KA relative to UGCAUGU
7 | B7 | 0.0899 KA relative to UGCAUGU
8 | B8 | 0.095 KA relative to UGCAUGU
9 | B9 | 0.0966 KA relative to UGCAUGU
10 | B10 | 0.0808 KA relative to UGCAUGU
11 | B11 | 0.0924 KA relative to UGCAUGU
12 | B12 | 0.288 KA relative to UGCAUGU
13 | B13 | 0.0578 KA relative to UGCAUGU
14 | B14 | 0.088 KA relative to UGCAUGU
15 | B15 | 0.0837 KA relative to UGCAUGU
16 | B16 | 0.0995 KA relative to UGCAUGU
17 | B17 | 0.113 KA relative to UGCAUGU
18 | B18 | 0.101 KA relative to UGCAUGU
19 | B19 | 0.0985 KA relative to UGCAUGU
20 | B20 | 0.167 KA relative to UGCAUGU
